From PubChem BioAssay AID588591 (National Center for Advancing Translational Sciences (NCATS), 2011)
Hit rate of the full screen: of about 390,000 compounds, about 4,700 (1.2%) were called active. The shares of active, inactive and inconclusive entries below differ from those in the screen. The call rests on the fitted dose curve; in most records, active means well fitted inhibition curve with a large enough effect; inconclusive means small, poorly fitted or top-dose-only effect, or another doubt; inactive means no such curve, though single readings can be large or run the other way. Where the call is inconclusive, the potency comes from a doubtful curve fit.

Biological target: DNA polymerase eta (Homo sapiens) (UniProt Q9Y253)
UniProt Q9Y253, sequence (Q9Y253 whole entry, looked up): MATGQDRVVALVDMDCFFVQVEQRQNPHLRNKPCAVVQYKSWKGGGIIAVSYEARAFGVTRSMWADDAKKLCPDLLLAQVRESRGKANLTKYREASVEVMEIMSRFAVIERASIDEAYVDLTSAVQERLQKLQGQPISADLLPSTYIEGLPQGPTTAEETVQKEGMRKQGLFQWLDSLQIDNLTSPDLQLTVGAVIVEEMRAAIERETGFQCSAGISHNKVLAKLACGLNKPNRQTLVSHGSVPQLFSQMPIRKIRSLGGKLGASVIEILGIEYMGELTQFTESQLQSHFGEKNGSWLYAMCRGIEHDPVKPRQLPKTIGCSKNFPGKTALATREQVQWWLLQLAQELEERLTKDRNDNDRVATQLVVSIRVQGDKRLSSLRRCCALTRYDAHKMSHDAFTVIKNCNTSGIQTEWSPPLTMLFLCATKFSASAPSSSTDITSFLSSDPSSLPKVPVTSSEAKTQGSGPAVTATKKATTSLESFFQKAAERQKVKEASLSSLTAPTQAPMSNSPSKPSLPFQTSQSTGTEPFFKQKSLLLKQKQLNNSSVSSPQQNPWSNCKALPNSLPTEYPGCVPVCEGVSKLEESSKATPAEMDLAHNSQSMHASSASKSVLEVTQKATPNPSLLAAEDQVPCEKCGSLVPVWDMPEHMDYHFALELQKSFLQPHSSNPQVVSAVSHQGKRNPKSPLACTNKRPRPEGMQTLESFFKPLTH
Experiment: qHTS for Inhibitors of Polymerase Eta
Conditions: recombinant Pol eta, fluorescent DNA replication assay; series mostly up to 114 µM
Outline: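 Fluorescent replication assay: 50 nM final substrate added after a 15 min room-temperature compound preincubation with 10 nM enzyme. Signal taken at 0 min and again at 10 min.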
Potency means the concentration at half of the fitted maximal effect; tags describe the fitted curve by direction and shape.

Row | Compound | Potency
1 | N#Cc1c(-c2ccccc2)nc(SCC(=O)Nc2ccc(OC(F)(F)Cl)cc2)[nH]c1=O | inconclusive: 89.1 µM [inhibitor, single point]
2 | CC(=O)c1ccc(OC(=O)c2nc(-c3ccccc3)oc2C)cc1 | inconclusive: 22.4 µM [inhibitor, full curve, poor fit]
3 | C=COCCn1c(=N)n(CCC)c2ccccc21 | inactive
4 | CCc1ccccc1NC(c1nnc(-c2cccc(F)c2)o1)c1ccc(F)cc1Cl (stereo not drawn) | inconclusive: 79.4 µM [inhibitor, partial curve, poor fit]
5 | Cc1ccc(C(=O)Nc2nnc(CC(=O)N/N=C/c3ccc(O)c(O)c3)s2)cc1 | active: 3.55 µM
6 | Cc1cccnc1NC(=O)c1c(O)c2ccccc2n(C)c1=O | inconclusive: 25.1 µM [inhibitor, full curve, poor fit]
7 | CC(C)=CCc1c(O)cc2oc3c(CC=C(C)C)c(O)c(O)c(CC=C(C)C)c3c(=O)c2c1O | active: 39.8 µM
8 | O=C(NNC(=O)c1sccc1-n1cccc1)c1cccc(Cl)c1 | inconclusive: 35.5 µM [inhibitor, partial curve, poor fit]
9 | Cc1cc(C)cc(NC(=O)Cn2cc(S(=O)(=O)NC(C)(C)C)c(S(=O)(=O)NC(C)(C)C)c2)c1 | inconclusive: 44.7 µM [inhibitor, partial curve, poor fit]
10 | O=C(NCCn1cc(SCc2ccccc2Cl)c2ccccc21)c1cccs1 | inactive
11 | COc1ccccc1/C=N/NC(=O)C(=O)NCc1cccnc1 | inactive
12 | C=CCn1c(SC(CCO)C(=O)NCc2ccco2)nc2sc3c(c2c1=O)CCC3 (stereo not drawn) | inconclusive: 22.4 µM [inhibitor, single point]
13 | O=C(COC(=O)c1nc(Cl)ccc1Cl)NCc1ccc(Cl)cc1Cl | inactive
14 | COc1cccc(C(=O)N2CCN(CCc3ccncc3)CC2)c1 | inconclusive: 100 µM [inhibitor, single point]
15 | O=C(c1cc(N2C(=O)C3C4CCC(C4)C3C2=O)ccc1Cl)N1CCN(c2ccccc2F)CC1 (stereo not drawn) | inactive
16 | Cc1ccc(-c2cc3ncc(C#N)c(N)n3n2)cc1 | inactive
17 | O=c1c2c(nc3c(-c4ccc(Cl)cc4)c[nH]n13)CCCC2 | inconclusive: 28.2 µM [inhibitor, partial curve]
18 | COC(=O)[C@]1(CC(C)C)N[C@H](c2ccc(-c3ccc(OC)cc3)cc2)[C@@H]2C(=O)N(C)C(=O)[C@@H]21 | inconclusive: 44.7 µM [inhibitor, partial curve, poor fit]
19 | CC(C)OCCCNC(=O)c1c(N)n(/N=C/c2cccs2)c2nc3ccccc3nc12 | inconclusive: 11.2 µM [inhibitor, partial curve, poor fit]
20 | O=C(COc1cccc2cccnc12)N/N=C1\SCC(=O)N1Cc1ccco1 | inconclusive: 31.6 µM [inhibitor, single point]
21 | O=c1[nH]c(N/N=C/c2ccc(O)cc2)nc2ccccc12 | inconclusive: 28.2 µM [inhibitor, partial curve, poor fit]
22 | C[C@@H]1CN([C@H](C)CO)C(=O)c2cccc(NC(=O)Nc3ccc(F)cc3)c2O[C@H]1CN(C)C(=O)Nc1ccc(C(F)(F)F)cc1 | inconclusive: 56.2 µM [inhibitor, partial curve, poor fit]
23 | N#Cc1ccsc1NC(=O)CN1C(=O)NC2(CCCCC2)C1=O | inconclusive: 35.5 µM [inhibitor, partial curve, poor fit]

Row | Compound | Potency
24 | CC1CCN(C2=NC(=O)/C(=C/c3ccccc3F)S2)CC1 | inconclusive: 39.8 µM [inhibitor, single point]
25 | O=c1cc(O)c2sc(Nc3ccc(F)cc3)nc2[nH]1 | inactive
26 | CCOC(=O)c1ccc2c(c1)sc(=NC(=O)c1ccco1)n2CCOC | inconclusive: 28.2 µM [inhibitor, partial curve, poor fit]
27 | O=C(NCCc1ccccc1)c1c[nH]c2ccc(S(=O)(=O)Nc3ccccc3F)cc2c1=O | inconclusive: 89.1 µM [inhibitor, single point]
28 | O=C(CSc1nnc(CNC(=O)c2c(F)cccc2F)o1)NCc1ccco1 | inconclusive: 17.8 µM [inhibitor, single point]
29 | Cc1ccc(S(=O)(=O)N2CCCCC2)cc1C(=O)N1CCN(CCO)CC1 | inconclusive: 39.8 µM [inhibitor, partial curve]
30 | O=C(CSc1ncnc2nc[nH]c12)c1ccc2ccccc2c1 | inconclusive: 31.6 µM [inhibitor, full curve]
31 | N#C/C(=C(/O)CSc1ccccc1C(=O)O)c1nc2ccccc2s1 | inconclusive: 35.5 µM [inhibitor, single point]
32 | Cc1ccc(S(=O)(=O)NNC(=O)C2COc3ccccc3O2)cc1 (stereo not drawn) | inconclusive: 39.8 µM [inhibitor, partial curve, poor fit]
33 | COc1ccc2ccccc2c1C1CC(=O)N2CN(C)CSC2=C1C#N (stereo not drawn) | inactive
34 | O=C(CSc1ccc2ccccc2n1)Nc1nsc(-c2ccc(Cl)cc2)n1 | inconclusive: 3.98 µM [inhibitor, full curve]
35 | CC(C)CN(C(=O)c1cc2ccccc2o1)c1c(N)n(CC(C)C)c(=O)[nH]c1=O | inconclusive: 39.8 µM [inhibitor, single point]
36 | COc1ccc(C(=O)COC(=O)c2ccccc2C(=O)N(C)c2ccccc2)c(OC)c1 | inconclusive: 35.5 µM [inhibitor, single point]
37 | CC(C)c1ccc(NC(=O)CSc2nc3ccccc3nc2N2CCCC2)cc1 | inactive
38 | COc1ccc2nc(SCC(=O)Nc3ccc(S(=O)(=O)N4CCCC4)cc3)c(C#N)cc2c1 | inactive
39 | CCn1nc(-c2ccccc2)c(-c2ccccc2)c(C(=O)OCCOC)c1=O | inactive
40 | COc1cc(/C=N/NC(=O)CN2CCCCC2)ccc1OCc1ccc(Br)cc1 | inconclusive: 25.1 µM [inhibitor, partial curve, poor fit]
41 | C=CCOCCN1C(=O)C2C3C=CC(C2C1=O)C1C2C(=O)N(CCOCC=C)C(=O)C2C31 (stereo not drawn) | active: 20 µM
42 | O=C(N/N=C/c1cccn1-c1cccc(C(=O)O)c1)Nc1ccccc1 | active: 7.94 µM
43 | O=C(NCCCN1CCCC1=O)C(=O)NCC1OCCCN1S(=O)(=O)c1ccccc1 (stereo not drawn) | inactive
44 | COc1ccc(NS(=O)(=O)c2c(C)cc(C)cc2C)cn1 | inactive
45 | O=[N+]([O-])c1cc2c(cc1/C=N/NS(=O)(=O)c1ccc(Br)cc1)OCO2 | inconclusive: 44.7 µM [inhibitor, partial curve]
46 | CCN(CC)c1ccc(NC(=O)CCS(=O)(=O)c2ccc(Br)cc2)c(C)c1 | active: 14.1 µM

Row | Compound | Potency
47 | O=C1C=CC(=O)c2c(O)c(CO)c(CO)c(O)c21 | active: 1 µM
48 | CC(O)c1ccc(OCCN(C)c2ccccn2)cc1 (stereo not drawn) | inconclusive: 39.8 µM [inhibitor, partial curve, poor fit]
49 | COC(=O)C1CCCN1S(=O)(=O)c1ccc2ccccc2c1 (stereo not drawn) | inconclusive: 79.4 µM [inhibitor, partial curve, poor fit]
50 | CCOc1cc(/C=C/C(=O)OCC(=O)NCc2ccco2)cc(Cl)c1OC | inconclusive: 35.5 µM [inhibitor, single point]
51 | COc1ccc(-c2nc3c(c(=O)[nH]c(=O)n3Cc3ccccc3)n2C)cc1 | inconclusive: 6.31 µM [inhibitor, full curve]
52 | Cc1ccc(NC(=O)Nc2cccs2)cc1 | inactive
53 | CC1(C2CC(C(F)(F)F)n3nc(C(=O)O)cc3N2)CC1 (stereo not drawn) | inconclusive: 89.1 µM [inhibitor, partial curve, poor fit]
54 | Cc1cc(-c2nnc(SCC(=O)Nc3nccs3)o2)no1 | inconclusive: 50.1 µM [inhibitor, partial curve]
55 | CC(=O)Nc1ccc(S(=O)(=O)N(Cc2ccccc2)c2ccccc2F)cc1 | inconclusive: 22.4 µM [inhibitor, partial curve, poor fit]
56 | COc1ccc(-n2nc3c(N4CCC(C(=O)NCc5cccc(C)c5)CC4)nnc(C)c3c2C)cc1 | inactive
57 | CS(=O)(=O)c1ccc2nc(NC(=O)c3ccc(NS(=O)(=O)c4cccc([N+](=O)[O-])c4)cc3)sc2c1 | inactive
58 | Cc1nnc(N/N=C\c2ccc(-c3cccc(C(=O)O)c3)o2)n1N | inconclusive: 56.2 µM [inhibitor, partial curve, poor fit]
59 | O=C(NCc1ccccc1)C1=C[C@@H](c2ccccc2)C[C@@H](OCCCCO)O1 | inactive
60 | Cc1ccc(NC(=O)CSCC(=O)Nc2sccc2C#N)cc1 | inconclusive: 25.1 µM [inhibitor, partial curve]
61 | O=C(Nc1ccccc1C(=O)O)c1ccc(CN2C(=O)c3ccccc3C2=O)cc1 | inactive
62 | O=C(Nc1cccc(C(F)(F)F)c1)c1cc2ncc(Br)cn2n1 | inactive
63 | Cc1ccc(C(=O)c2sc(Nc3ccccc3)c(C#N)c2N)cc1 | inconclusive: 79.4 µM [inhibitor, partial curve, poor fit]
64 | COc1cccc(C2C(C(=O)Nc3cccnc3)=C(C)Nc3nc(SCc4ccccc4)nn32)c1 (stereo not drawn) | inactive
65 | C/C=C\C=C/C(=O)Nc1cccc(C2=NOC3(C2)C[C@@H](C(N)=O)N(C(=O)/C=C/CC)C3)c1 (stereo partly drawn) | active: 22.4 µM
66 | COc1ccc(Cl)cc1NC(=O)c1ocnc1C | inconclusive: 44.7 µM [inhibitor, partial curve, poor fit]
67 | COc1ccc2nc(NC(=O)c3cnccn3)sc2c1 | inconclusive: 79.4 µM [inhibitor, partial curve]
68 | O=c1[nH]c(S)c(/C=C2\C=Nc3ccccc32)s1 | active: 39.8 µM
